Measurements published in paper PMC3660575.
These are yes or no findings as the source states them, for the method shown. In cells and extracts the contact can be indirect. Some binding calls cover weakened binding; strength is not graded here.

Target: APP695 (UniProt P05067)
Test: co-IP; competition binding assay: purified Sort-T-myc/His (50 µl) or MS1 peptide (10 µM) pre-incubated with APP695 lysate 1 h at 4°C; read as loss of the sortilin-CFP construct from the anti-APP precipitate; only the binder purified

- binding: binds
B1: MS1 peptide (peptide)
peptide: CGGRFLVHRYSVLQQ
